# Test results: a collection of fitness landscapes (doi:10.1126/science.1257360)
# The other results are listed elsewhere or left out.
# B1: PhoQ; a variant is named by its letters at X, in order, P23837 (parent)
# chain: MKKLLRLFFPLSLRVRFLLATAAVVLVLSLAYGMVALIGYSVSFDKTTFRLLRGESNLFYTLAKWENNKLHVELPENIDKQSPTMTLIYDENGQLLWAQRDVPWLMKMIQPDWLKSNGFHEIEADVNDTSLLLSGDHSIQQQLQEVREDDDDAEMTHSVAVNVYPATSRMPKLTIVVVDTIPVELKSSYMVWSWFIYVLSANLLLVIPLLWVAAWWSLRPIEALAKEVRELEEHNRELLNPATTRELTSLVRNLNRLLKSERERYDKYRTTLTDLTHSLKTPLXXLQXXLRSLRSEKMSVSDAEPVMLEQISRISQQIGYYLHRASMRGGTLLSRELHPVAPLLDNLTSALNKVYQRKGVNISLDISPEISFVGEQNDFVEVMGNVLDNACKYCLEFVEISARQTDEHLYIVVEDDGPGIPLSKREVIFDRGQRVDTLRPGQGVGLAVAREITEQYEGKIVAGESMLGGARMEVIFGRQHSAPKDE
# Variants of: B1
# Test: enrichment ratio after two sorts for PhoP signalling (ratio (wild type AVST 3.29)); higher = more functional
# Settings: with PhoP (E. coli)
row,Variant,enrichment ratio
1,WMKW,≤ 0.25
2,VLMT,≤ 0.25
3,WHPV,≤ 0.25
4,RVMW,≤ 0.25
5,WHPT,≤ 0.25
6,TQYD,3.43
7,PKYY,≤ 0.25
8,FTEY,≤ 0.25
9,WCPV,≤ 0.25
10,RGRF,≤ 0.25
11,NPGK,≤ 0.25
12,VYMY,≤ 0.25
13,RRAS,0.387
14,TRGE,≤ 0.25
15,YQQM,≤ 0.25
16,TIIW,≤ 0.25
17,QEVA,≤ 0.25
18,WMHT,≤ 0.25
19,YGKQ,≤ 0.25
20,RSGF,≤ 0.25
21,GHYK,≤ 0.25
22,LMDF,≤ 0.25
23,FFIG,≤ 0.25
24,DRTT,≤ 0.25
25,RIRR,≤ 0.25
26,MTVS,≤ 0.25

row,Variant,enrichment ratio
1,PCWN,≤ 0.25
2,KTAY,≤ 0.25
3,KSKK,≤ 0.25
4,DHAE,≤ 0.25
5,DNMC,≤ 0.25
6,WADW,≤ 0.25
7,SSCW,2.47
8,YLTW,≤ 0.25
9,FENW,≤ 0.25
10,CINV,≤ 0.25
11,FNAT,≤ 0.25
12,RKKD,≤ 0.25
13,AQWL,≤ 0.25
14,NCYR,≤ 0.25
15,GFII,≤ 0.25
16,TYKA,≤ 0.25
17,EIKP,≤ 0.25
18,PREW,≤ 0.25
19,IRTE,≤ 0.25
20,RRNC,≤ 0.25
21,HWWI,≤ 0.25
22,PNKA,≤ 0.25
23,WGYD,≤ 0.25
24,KHCI,≤ 0.25
25,YYIE,≤ 0.25
26,IITM,≤ 0.25

row,Variant,enrichment ratio
1,HAYP,≤ 0.25
2,FEDR,≤ 0.25
3,NEYG,≤ 0.25
4,GASP,≤ 0.25
5,AHNG,≤ 0.25
6,SQRA,≤ 0.25
7,CMIR,≤ 0.25
8,DRGY,≤ 0.25
9,WSMI,≤ 0.25
10,MYGQ,≤ 0.25
11,SAMV,14.1
12,FCKK,≤ 0.25
13,HTAR,≤ 0.25
14,SNLF,6.89
15,RMAL,≤ 0.25
16,WTCH,≤ 0.25
17,GTMF,8.13
18,DGVW,≤ 0.25
19,VYFL,≤ 0.25
20,PPCP,≤ 0.25
21,SYTY,≤ 0.25
22,FNEP,≤ 0.25
23,EQTT,≤ 0.25
24,YMWC,≤ 0.25
25,EDSP,≤ 0.25
26,ELKH,≤ 0.25

row,Variant,enrichment ratio
1,LWKW,≤ 0.25
2,AQKH,≤ 0.25
3,QHDG,110
4,IFRK,≤ 0.25
5,WRSD,≤ 0.25
6,TQTP,≤ 0.25
7,QCSK,≤ 0.25
8,SGGT,2.3
9,RKHA,≤ 0.25
10,KMSW,≤ 0.25
11,YYNA,≤ 0.25
12,FTKF,≤ 0.25
13,ARVH,≤ 0.25
14,VHPI,≤ 0.25
15,HSWC,≤ 0.25
16,QAPD,≤ 0.25
17,MYKI,≤ 0.25
18,HYQH,≤ 0.25
19,FPVW,≤ 0.25
20,SNHI,≤ 0.25
21,DNLG,≤ 0.25
22,VNTQ,≤ 0.25
23,PFQC,≤ 0.25
24,LEDE,≤ 0.25
25,GFHF,≤ 0.25
26,RCHV,≤ 0.25

row,Variant,enrichment ratio
1,DYNQ,≤ 0.25
2,YPHS,≤ 0.25
3,AMTH,0.411
4,GMMF,3.35
5,MIHG,≤ 0.25
6,LYPC,≤ 0.25
7,VVEW,≤ 0.25
8,QDNT,≤ 0.25
9,CSRL,≤ 0.25
10,IYQR,≤ 0.25
11,HVGG,≤ 0.25
12,NSIR,≤ 0.25
13,LQYS,≤ 0.25
14,WLAP,≤ 0.25
15,FILP,≤ 0.25
16,VRMR,≤ 0.25
17,WSNA,≤ 0.25
18,SMQG,0.385
19,TFPD,≤ 0.25
20,TRKV,≤ 0.25
21,MDKR,≤ 0.25
22,WSST,≤ 0.25
23,NNCN,≤ 0.25
24,WLIC,≤ 0.25
25,FYKW,≤ 0.25
26,VMWH,0.55

row,Variant,enrichment ratio
1,YYIF,≤ 0.25
2,VMNT,≤ 0.25
3,RETI,≤ 0.25
4,YAEF,≤ 0.25
5,ISIT,≤ 0.25
6,KGYV,≤ 0.25
7,FYFI,≤ 0.25
8,QRKE,≤ 0.25
9,ARVM,14.7
10,IMVQ,≤ 0.25
11,SPNK,≤ 0.25
12,IGFG,≤ 0.25
13,MMNY,≤ 0.25
14,HVWD,≤ 0.25
15,YDQH,≤ 0.25
16,QHSA,≤ 0.25
17,IMKN,≤ 0.25
18,KHFY,≤ 0.25
19,STRP,≤ 0.25
20,EDHP,≤ 0.25
21,RSHW,≤ 0.25
22,FVWT,≤ 0.25
23,RGGG,≤ 0.25
